The data set concerns ATP. The data set can be described thus: switch fluorescence ratio, 500 uM ATP over buffer (Cy3 cluster intensity, sum of 5 cycles each) (fold (ratio)); higher = stronger signal-on switching upon ATP binding; sequences stand for … in TCGTCGGCAGCGTCAGATGTGTATAAGAGACAGTTTTTTTTTTTTTTTTTTTTTTTTT…TC. As to conditions: aptamer strand: ATP DNA aptamer (quencher-CACCTGGGGGAGTATTGCGGAGGAAGG + anchor), 100 nM annealed; ATP concentration: 500 uM; one replicate. The gist of the method: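 Cy3-labelled switching-strand clusters on a modified Illumina MiSeq flow-cell were annealed to 100 nM quencher-labelled ATP aptamer, imaged in selection buffer, then imaged after 15 min with 500 uM ATP at 22 °C. Five buffer/ATP cycles ran, with NaOH stripping and re-annealing between them. The fluorescence ratio is summed target-cycle over summed buffer-cycle Cy3 intensity per cluster, averaged per switch-domain sequence. Clusters outside 100-1000 RFU were excluded.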

Sequences with one replicate were seen in a single cluster, so their values are uncertain.
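Further: ATP exposure 15 min at 22 °C before imaging.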

With GATACTGCGA, the switch fluorescence ratio came to 1.05.

Regarding ACAATATGCG, the switch fluorescence ratio was 1.01.

Take TGAGGGTAGG: the switch fluorescence ratio was determined as 0.974.

For TCGAGGACGT, the switch fluorescence ratio turned out to be 1.05.

In the case of CCTTGCCTTT, the switch fluorescence ratio is 1.01.

On to CTTTCAGAAT, for which the switch fluorescence ratio was determined as 1.

Take TGCAATAAGC: the switch fluorescence ratio was determined as 1.4.

Turning to AGATTGCGCC, the switch fluorescence ratio came to 1.02.

Take TATCGCTCTA: the switch fluorescence ratio is 0.952.

ACCTCTGGGC: the switch fluorescence ratio was found to be 1.07.

As to TTTTGTAGT, the switch fluorescence ratio amounted to 0.985.

Take GCTATCATAC: the switch fluorescence ratio is 1.39.

With TGGTCGGAGC, the switch fluorescence ratio is 1.01.

With AGCGACGACA, the switch fluorescence ratio worked out at 1.26.

Consider TGTCTGAGAT, for which the switch fluorescence ratio was 1.07.

ATCTAGCTAG: the switch fluorescence ratio came out at 0.978.

For CGACTAGTTC, the switch fluorescence ratio amounted to 0.996.

Consider TTAGCTAGTC, for which the switch fluorescence ratio came out at 0.933.

Consider GTTACGTGGA, for which the switch fluorescence ratio worked out at 1.09.

Take TGTCTGGCCT: the switch fluorescence ratio was 0.97.

As for GTATTAGCGG, the switch fluorescence ratio amounted to 0.97.

Turning to CATGGCACC, the switch fluorescence ratio came to 1.05.

As for CGGGGGTTTA, the switch fluorescence ratio came to 1.08.

As for AAGGGAATCG, the switch fluorescence ratio turned out to be 1.03.

Regarding TGCCGCGTGG, the switch fluorescence ratio came out at 1.

ATTTGGTCAT: the switch fluorescence ratio was 1.12.

As to TGCCGGGCAC, the switch fluorescence ratio was 1.39.

On to AACGGCTTTT, for which the switch fluorescence ratio is 0.992.

CTGATGGAA: the switch fluorescence ratio is 1.04.

For the sequence AAAGCGTCAA, the switch fluorescence ratio amounted to 1.08.

Take GGAGCTCTTT: the switch fluorescence ratio amounted to 1.02.

Consider CCACGAGACA, for which the switch fluorescence ratio turned out to be 1.23.

With CGGTTTATGT, the switch fluorescence ratio was 0.994.

Turning to GATAAGGTGT, the switch fluorescence ratio is 1.21.

As for TCGGCACGGC, the switch fluorescence ratio came to 1.04.

In the case of TTTCTCAAAC, the switch fluorescence ratio is 1.01.

For the sequence GTTTAGTCGT, the switch fluorescence ratio was determined as 0.967.

For TGCCCCCCC, the switch fluorescence ratio stood at 2.35.

Turning to GCGATCGAA, the switch fluorescence ratio amounted to 1.02.

For the sequence AATAGAATAG, the switch fluorescence ratio is 0.996.

As for GGAAGTGGTG, the switch fluorescence ratio turned out to be 1.01.

With GACATAGCTT, the switch fluorescence ratio was found to be 1.03.

In the case of CTGCAATCAG, the switch fluorescence ratio was 3.61.

On to TTGCGACGTA, for which the switch fluorescence ratio is 0.995.

For AGAGCCCACT, the switch fluorescence ratio was found to be 1.01.

For the sequence TTGGCAGTAT, the switch fluorescence ratio came out at 1.02.

Regarding CTAGACAACA, the switch fluorescence ratio came out at 1.04.

For GAATGGTAGA, the switch fluorescence ratio was found to be 1.

On to TTTCAGCTCG, for which the switch fluorescence ratio worked out at 1.01.

CGAATTCGTT: the switch fluorescence ratio amounted to 1.02.

Take ATACTGTGAT: the switch fluorescence ratio is 1.07.

As to AACGTAATCT, the switch fluorescence ratio amounted to 1.28.

In the case of GTAGGAATT, the switch fluorescence ratio is 1.

In the case of GAACTAGAAC, the switch fluorescence ratio stood at 1.02.

On to CAATTGACAG, for which the switch fluorescence ratio was 1.05.

As to TTTCGGTAGG, the switch fluorescence ratio came to 0.989.

As for ATGTTCATGA, the switch fluorescence ratio was 0.989.

With AGAAGTAAGC, the switch fluorescence ratio was found to be 1.04.

Regarding CGGACTATCA, the switch fluorescence ratio was determined as 0.981.

As for TTCGGCTTAA, the switch fluorescence ratio worked out at 1.8.

Regarding ACCATATTCG, the switch fluorescence ratio came to 1.33.

With GCAGGCTGTA, the switch fluorescence ratio amounted to 0.992.

For TTCGAACGAC, the switch fluorescence ratio is 1.23.

As to AATAGTCCCC, the switch fluorescence ratio was determined as 1.08.

Consider TTGGGCTCGT, for which the switch fluorescence ratio amounted to 1.02.

In the case of GAGGGTTCAC, the switch fluorescence ratio is 1.01.

Turning to GCGGCGGCTT, the switch fluorescence ratio is 0.955.

As for TAAACGGAAT, the switch fluorescence ratio was determined as 1.01.

For GAGTTTATCT, the switch fluorescence ratio was 0.974.

As to AGCGCAATTA, the switch fluorescence ratio worked out at 3.43.

For AATATGGGCA, the switch fluorescence ratio was 1.03.

On to TCGTTTAATA, for which the switch fluorescence ratio amounted to 1.

In the case of GACCCTTCGC, the switch fluorescence ratio came to 1.59.

In the case of TAGGTAAAAC, the switch fluorescence ratio was found to be 1.02.

With AGGCAGTTAA, the switch fluorescence ratio worked out at 0.972.

Turning to CTGTATGTAA, the switch fluorescence ratio was 1.04.

In the case of AGCGAGTGCT, the switch fluorescence ratio came out at 0.985.

For GATGTACCTT, the switch fluorescence ratio was 1.1.

For CTTGAGGGA, the switch fluorescence ratio is 1.01.

On to AAGTTTCTTG, for which the switch fluorescence ratio was determined as 0.955.

For GGCGGCTGGA, the switch fluorescence ratio came to 1.01.

In the case of CGAGCATAAT, the switch fluorescence ratio stood at 1.84.

For the sequence TCGAGTTCTA, the switch fluorescence ratio came to 0.953.

Regarding AGCAAGATGT, the switch fluorescence ratio came out at 1.08.

ATTGTTATCC: the switch fluorescence ratio is 0.989.

With ATGTAACGGC, the switch fluorescence ratio came to 1.01.

In the case of AGATTGTGGG, the switch fluorescence ratio came out at 1.02.

On to CACTGAGGGC, for which the switch fluorescence ratio was 0.975.

Take GAATTCTTCA: the switch fluorescence ratio amounted to 1.4.

Consider ATTGCCTAGG, for which the switch fluorescence ratio was 1.04.

With CATATAGAA, the switch fluorescence ratio turned out to be 0.969.

Regarding GCAACCTAGG, the switch fluorescence ratio came to 1.03.

Regarding TCACATG, the switch fluorescence ratio is 0.997.

Take CCCATAGATT: the switch fluorescence ratio was found to be 1.01.

For TATCTGTGCA, the switch fluorescence ratio was determined as 0.993.

AGTGAGATG: the switch fluorescence ratio was 1.

Regarding TTCGCTTTTC, the switch fluorescence ratio is 1.18.

As for AGCGCGCCTG, the switch fluorescence ratio is 1.01.

Take AGGATGCATC: the switch fluorescence ratio was found to be 0.959.

As for ATCTAAGGGC, the switch fluorescence ratio worked out at 1.03.

With TTAAGTACTC, the switch fluorescence ratio was determined as 1.34.

Regarding CATTTCACAG, the switch fluorescence ratio turned out to be 0.987.

For the sequence ACGCGGAGTT, the switch fluorescence ratio is 1.02.

On to GCCGTGATAA, for which the switch fluorescence ratio came out at 1.33.

ATGATAGATG: the switch fluorescence ratio is 1.

On to CTTCTGAAGC, for which the switch fluorescence ratio stood at 1.96.

With GTCTGTGCTG, the switch fluorescence ratio amounted to 1.01.

With GAACTCGGCC, the switch fluorescence ratio came out at 1.1.

As for ACTCCGGGGG, the switch fluorescence ratio was determined as 1.22.

Consider GAATGATAGT, for which the switch fluorescence ratio was 0.972.

Consider GACCCCGGCT, for which the switch fluorescence ratio was found to be 1.02.

In the case of AGTTAGACAA, the switch fluorescence ratio came out at 1.01.

AATAGGCCCC: the switch fluorescence ratio was found to be 1.

Take AGTAACCGGT: the switch fluorescence ratio came to 1.01.

In the case of ATCAGGCTAC, the switch fluorescence ratio amounted to 1.07.

With ACGTCAAGGA, the switch fluorescence ratio came out at 1.14.

As to TTTCCCAACT, the switch fluorescence ratio is 1.18.

GCCAGTTTCG: the switch fluorescence ratio worked out at 1.01.

Regarding TCAGTTATCC, the switch fluorescence ratio worked out at 0.958.

On to GCGCCATC, for which the switch fluorescence ratio was found to be 1.42.

The values are drawn from the supplement of paper PMC10126150.
